Molecular target: T1, huPD-L1-Fc (R&D Systems) (human, UniProt Q9NZQ7 in part)
T1 construct: Bought from R&D Systems; also called hPDL1-Fc; human PD-L1 Fc antigen
Assay: Biacore, bispecific immobilised on CM5, rhPD-L1-Fc as analyte (binding via AVA04-251)

T1 sequence (Q9NZQ7 19-239 limits assumed): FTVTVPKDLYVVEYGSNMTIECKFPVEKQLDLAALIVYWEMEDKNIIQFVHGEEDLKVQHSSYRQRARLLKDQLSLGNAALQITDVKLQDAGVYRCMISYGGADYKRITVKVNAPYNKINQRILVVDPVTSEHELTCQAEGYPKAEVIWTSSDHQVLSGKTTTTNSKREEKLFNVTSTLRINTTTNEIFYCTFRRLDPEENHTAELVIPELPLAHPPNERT

Binder	Kd
Bevacizumab-AVA04-251 bispecific antibody, flexible (G4S)3 linker (bispecific antibody, human IgG1, kappa) heavy: EVQLVESGGGLVQPGGSLRLSCAASGYTFTNYGMNWVRQAPGKGLEWVGWINTYTGEPTYAADFKRRFTFSLDTSKSTAYLQMNSLRAEDTAVYYCAKYPHYYGSSHWYFDVWGQGTLVTVSSASTKGPSVFPLAPSSKSTSGGTAALGCLVKDYFPEPVTVSWNSGALTSGVHTFPAVLQSSGLYSLSSVVTVPSSSLGTQTYICNVNHKPSNTKVDKKV[human IgG1 Fc skipped]GGGSGGGGSGGGGSIPRGLSEAKPATPEIQEIVDKVKPQLEEKTGETYGKLEAVQYKTQVLAREGRQDWVLSTNYYIKVRAGDNKYMHLKVFNGPWVPFPHQQLADRVLTGYQVDKNKDDELTGF light: DIQMTQSPSSLSASVGDRVTITCSASQDISNYLNWYQQKPGKAPKVLIYFTSSLHSGVPSRFSGSGSGTDFTLTISSLQPEDFATYYCQQYSTVPWTFGQGTKVEIKRTVAAPSVFIFPPSDEQLKSGTASVVCLLNNFYPREAKVQWKVDNALQSGNSQESVTEQDSKDSTYSLSSTLTLSKADYEKHKVYACEVTHQGLSSPVTKSFNRGEC	0.313 nM
Bevacizumab-AVA04-251 bispecific antibody, rigid A(EAAAK)3 linker (bispecific antibody, human IgG1, kappa) heavy: EVQLVESGGGLVQPGGSLRLSCAASGYTFTNYGMNWVRQAPGKGLEWVGWINTYTGEPTYAADFKRRFTFSLDTSKSTAYLQMNSLRAEDTAVYYCAKYPHYYGSSHWYFDVWGQGTLVTVSS[human IgG1 constant region skipped]AEAAAKEAAAKEAAAKIPRGLSEAKPATPEIQEIVDKVKPQLEEKTGETYGKLEAVQYKTQVLAREGRQDWVLSTNYYIKVRAGDNKYMHLKVFNGPWVPFPHQQLADRVLTGYQVDKNKDDELTGF light: DIQMTQSPSSLSASVGDRVTITCSASQDISNYLNWYQQKPGKAPKVLIYFTSSLHSGVPSRFSGSGSGTDFTLTISSLQPEDFATYYCQQYSTVPWTFGQGTKVEIKRTVAAPSVFIFPPSDEQLKSGTASVVCLLNNFYPREAKVQWKVDNALQSGNSQESVTEQDSKDSTYSLSSTLTLSKADYEKHKVYACEVTHQGLSSPVTKSFNRGEC	0.538 nM

Source: US20210163599A1 (AVACTA LIFE SCIENCES, published 2021)
